Results published in PubChem BioAssay AID686978 (National Center for Advancing Translational Sciences (NCATS), 2013).
The campaign covered roughly 420,000 compounds. About 64,000 (15%) were called active. This list was built around the results that the source calls inconclusive (neither active nor inactive); the mix of calls is not that of the screen. Calls follow the shape of the dose curve; as a rule, active = well fitted inhibition curve with a large enough effect; inconclusive = small, poorly fitted or top-dose-only effect; inactive = flat fitted curve, though single readings scatter. Potencies of inconclusive entries are left out as doubtful fits.

Test: qHTS for Inhibitors of human tyrosyl-DNA phosphodiesterase 1 (TDP1): qHTS in cells in absence of CPT; also: nearly all actives have a fitted effect of over 55% in size
Details: DT40 Tdp1-/- hTDP1 cells, no CPT, ATP luminescence, 48 h; activity change, negative = growth inhibition: at 46.2 µM (top of the series) unless noted
Procedure, shortened: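 Luminescent ATP content (CellTiter-Glo) served as the growth readout. Knockout chicken DT40 cells expressing human TDP1 were exposed to compounds without camptothecin for a minimum 48 hr at 37 °C.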
% is scaled to controls: 0 for no effect and ±100 for the full control effect; potency is read from the fitted curve at half-maximal effect; tags tell the direction and shape of the fitted curve.

Structure (SMILES) | Potency | activity change, negative = growth inhibition
CNCCCCOc1ccccc1Cc1ccccc1 | active: 8.41 µM | –
c1ccc(-c2cc3c(-n4cccc4)ncnc3o2)cc1 | inconclusive [inhibitor, single point] | –
Fc1ccccc1NC(=S)NN(Cc1ccccc1)c1ccccc1 | inconclusive [inhibitor, single point] | –
CN(CC(=O)N1CCOCC1)Cc1c(Cl)cccc1NC(=O)c1ccccc1 | inconclusive [inhibitor, single point] | –
Cc1csc2ncnc(N3CCN(C(=S)Nc4ccc(C(F)(F)F)cc4)CC3)c12 | inconclusive [inhibitor, partial curve] | –
CCOc1ccc(OCC)c(-c2c(=O)n(OCc3ccc(Cl)cc3)c3ccccc3[n+]2[O-])c1 | active: 8.2 µM | –
CCn1c(SCc2ccc(F)cc2Cl)nc(=O)c2c(C(=O)OC)cc(C3CC3)nc21 | active: 18.4 µM | –
Cc1ccc(NC(=O)c2cncc(Br)c2)c(O)c1 | inconclusive [inhibitor, partial curve] | –
COC(=O)[C@@]1(Cc2ccc(F)cc2)[C@H]2c3cc(C(=O)N4CCCC4)n(Cc4ccc(OC(F)(F)F)cc4)c3C[C@H]2CN1C(=O)c1ccccc1 | active: 18.4 µM | –
CCCCNC(=O)c1ccc2nc(CC)c(N(C)Cc3cccs3)n2c1 | inconclusive [inhibitor, partial curve, poor fit] | –
CCCN(CCC)CCNC(=S)Nc1ccc2nc3n(c(=O)c2c1)CCCCC3 | inconclusive [inhibitor, single point] | –
CCCCN1C(=O)C(CC(=O)NCC2CCCCC2)CC(C(=O)N2CCCCCC2)=C1C (stereo unspecified) | inconclusive [inhibitor, single point] | –
CCN(CC)S(=O)(=O)c1ccc(C(=O)NCC(c2ccc(OC)cc2)N2CCOCC2)cc1 (stereo unspecified) | – | inactive: -22.6%
O=C1CCC(=O)N1CNc1cccnc1 | inconclusive [inhibitor, single point] | –
N=c1cc(C2(O)CCCCC2)n2c(nc3ccccc32)s1 | inconclusive [inhibitor, single point] | –
Cc1ccn(-c2ccc(NC(=O)c3cccs3)cc2)n1 | active: 11.6 µM | –
CC(=O)c1ccc(OCc2cc(C(=O)N(C)C3CCOC3)no2)cc1 (stereo unspecified) | – | inactive: 0.29%
Cc1cc(C)nc(N/N=C/C=C/c2ccccc2)n1 | inconclusive [inhibitor, single point] | –
O=C(c1ccc2c(c1)CCN2S(=O)(=O)c1ccc(Cl)cc1)N1CCN(c2ccccc2)CC1 | active: 20.6 µM | –
CCOC(=O)c1c(C)oc2c1c(C(c1ccncc1)N1CCOCC1)c(O)c1ccccc12 (stereo unspecified) | inconclusive [inhibitor, single point] | –
Cc1cc2oc(=O)cc(-c3ccccc3)c2c(C)c1-c1ccc(C(F)(F)F)cc1 | inconclusive [inhibitor, single point] | –
CCOC(=O)C1=CN(CC)S(=O)(=O)NC1c1ccc(C(F)(F)F)cc1 (stereo unspecified) | – | inactive: -15.5%
CCOC(=O)C(C(=O)OCC)C(C#N)c1ccccc1 (stereo unspecified) | – | inactive: -14.2%
COc1ccc(OC)c(NC(=O)CCc2nnc3ccc(NCc4ccco4)nn23)c1 | inconclusive [inhibitor, single point] | –

Structure (SMILES) | Potency | activity change, negative = growth inhibition
O=C1CN(C(=O)CSc2nc(-c3ccccc3)cs2)c2ccccc2N1 | inconclusive [inhibitor, single point] | –
Cc1sc2ncn(CC(=O)NCCCN3CCC(C)CC3)c(=O)c2c1S(=O)(=O)N1CCC(C)CC1 | – | inactive: -1.15%
COc1ccc(CNC(=O)Nc2ccc3c(c2)c(=O)n(C)n3Cc2cc(C)cc(C)c2)cc1 | inconclusive [inhibitor, single point] | –
COC(OC)c1ccnc(SCc2ccccc2Cl)n1 | – | inactive: -29.6%
O=C(O)CNc1ccc(S(=O)(=O)C(F)(F)F)cc1[N+](=O)[O-] | – | inactive: -1.83%
O=C(N/C=N/OCc1cccc(C(F)(F)F)c1)N1OC[C@@H]2COc3ccc4ccccc4c3[C@@H]21 | inconclusive [inhibitor, single point] | –
O=S(=O)(Nn1cnnc1)c1ccccc1Cl | – | inactive: -27.3%
O=S1(=O)c2ccccc2OC(COCc2ccccc2)CN1Cc1ccccc1 (stereo unspecified) | inconclusive [inhibitor, single point] | –
Cc1c(C(=O)Nc2ccc(Cl)cc2)c2ccccn2c1CCc1ccncc1 | inconclusive [inhibitor, single point] | –
Cc1c(C(=O)OCC2CCCO2)[nH]c2c1C(=O)CC(c1ccco1)C2 (stereo unspecified) | active: 3.66 µM | –
COc1ccc(C(OC(=O)c2ccco2)C(=O)NC2CCCC2)cc1 (stereo unspecified) | – | inactive: 2.4%
CCS(=O)(=O)c1ccc(OC)c(N=Nc2ccc(O)c3ncccc23)c1 | inconclusive [inhibitor, single point] | –
Cc1cccc(C)c1NC(=O)C(C)c1ccc(-c2ccccc2)c(F)c1 (stereo unspecified) | active: 16.4 µM | –
c1cc(-c2cc3nc(NC4CCCCC4)ccn3n2)ccc1OCCN1CCOCC1 | active: 3.26 µM | –
CCCOc1ccc(N2C(=O)CC(SC(=NC)Nc3ccc(F)cc3)C2=O)cc1 (stereo unspecified) | inconclusive [inhibitor, full curve, poor fit] | –
COC(=O)c1ccc(C)c(NC(=O)CCCN2C(=O)NC(C)(C)C2=O)c1 | – | inactive: 2.81%
CCCCNC(=O)CSc1nc2cc3c(cc2c(=O)n1Cc1ccco1)OCO3 | active: 16.4 µM | –
O=C(NCc1ccc(F)cc1)C1CCN(c2ncnc3c2nc2n3CCCCC2)CC1 | inconclusive [inhibitor, partial curve] | –
COc1ccc(CNC(=O)c2ccc3c(c2)N(Cc2ccccc2C)C(=O)c2ccccc2S3=O)cc1 (stereo unspecified) | inconclusive [inhibitor, partial curve] | –
COC(=O)C1=C(C)N=c2s/c(=C/c3ccoc3)c(=O)n2C1c1ccccc1 (stereo unspecified) | inconclusive [inhibitor, single point] | –
Cc1ccc(O)c(NC(=O)C2CC(c3cccc(Br)c3)=NO2)c1 (stereo unspecified) | – | inactive: -13.5%
Cc1c(NC(=O)Cn2[nH]c(=O)c3ccccc3c2=O)c(=O)n(-c2ccccc2)n1C | – | inactive: -2.86%
Cc1ccc2c(c1)C(c1ccc(N3CCOCC3)cc1)=NNC(c1cccs1)=N2 | inconclusive [inhibitor, single point] | –
CCCCCn1c(=N)c(S(=O)(=O)c2ccc(Br)cc2)cc2c(=O)n3cccc(C)c3nc21 | inconclusive [inhibitor, single point] | –

Structure (SMILES) | Potency | activity change, negative = growth inhibition
COc1ccc(CN(C)Cc2cc(=O)n3ccsc3n2)c(OC)c1OC | – | inactive: -20.8%
CN(Cc1ccc(Cl)cc1)C(=O)COC(=O)CSc1ccc([N+](=O)[O-])cc1 | – | inactive: -12%
Cc1ccc(S(=O)(=O)Nc2nc3ccccc3nc2NCc2ccc3c(c2)OCO3)cc1C | inconclusive [inhibitor, partial curve, poor fit] | –
COc1ccccc1-c1nc2cc3ccccc3cc2nc1-c1ccccc1OC | inconclusive [inhibitor, single point] | –
C=CCOc1ccccc1CNc1ccc2[nH]c(=O)[nH]c2c1 | active: 20.6 µM | –
CCn1nc(C(=O)NCC2COc3ccccc3O2)c2ccccc2c1=O (stereo unspecified) | inconclusive [inhibitor, single point] | –
CC(=O)c1ccc(-c2ccc(C(=O)N3CCCc4ccccc43)o2)cc1 | inconclusive [inhibitor, partial curve] | –
Cc1cc(C(=O)N2CCCC(CO)(Cc3ccc(F)cc3F)C2)nn1C (stereo unspecified) | inconclusive [inhibitor, single point] | –
O=CN1CCN(C(=O)CC(c2ccccc2)c2cc(Br)ccc2O)CC1 (stereo unspecified) | – | inactive: -7.15%
CCN1C(=O)C(CC(=O)Nc2ccc(OC)cc2)N(CCCN2CCN(c3ccc(F)cc3)CC2)C1=S (stereo unspecified) | active: 13 µM | –
CCC(=O)N1CCN(c2ccccc2NC(=O)c2ccc([N+](=O)[O-])o2)CC1 | active: 18.4 µM | –
Cc1c(NC(=O)c2cc3nc(-c4ccccc4)cc(C)n3n2)c(=O)n(-c2ccccc2)n1C | inconclusive [inhibitor, single point] | –
Nc1nc(Nc2ccccc2F)sc1C(=O)c1ccccc1 | inconclusive [inhibitor, partial curve] | –
COc1ccc(CNc2oc(/C=C/c3cccc(OC)c3)nc2C#N)cc1 | active: 23.1 µM | –
COC(=O)CCN(Cc1ccccc1)S(=O)(=O)c1ccccc1Br | inconclusive [inhibitor, single point] | –
Nc1ccccc1N | active: 7.7 µM | –
CC(/C=C/c1ccccc1)=N/NC(=O)c1nc2nc(C)cc(C)n2n1 | inconclusive [inhibitor, single point] | –
CCOCCCNC(=O)c1ccc(N2CCCC2)c(NS(=O)(=O)c2ccc(C)cc2)c1 | inconclusive [inhibitor, single point] | –
CN(Cc1ccccc1)C(=O)c1cccc(NC(=O)c2nsc3ccccc23)c1 | inconclusive [inhibitor, partial curve, poor fit] | –
COc1cc(C(CC(=O)Nc2cc(C)ccc2C)N2Cc3ccccc3C2=O)cc(OC)c1OC (stereo unspecified) | inconclusive [inhibitor, single point] | –
COc1cc(C)ccc1OCc1cc(C(=O)N2CCC(c3ccc(F)cc3)C2)no1 (stereo unspecified) | active: 2.31 µM | –
O=c1ccn(Cc2ccccc2)c(=O)n1Cc1ccccc1 | – | inconclusive: -32.7% [inhibitor]
CN(CCCOc1ccccc1Br)Cc1ccccc1 | inconclusive [inhibitor, single point] | –
